In all, about 150,000 compounds went through this assay and about 540 (0.36%) showed an effect of 50% or more. This is one part of the list.
These compounds were tested on Plasmodium falciparum (assay: Primary screen in NF54 nanoGlo assay, in single point, at 2uM, 72h; a lower Z score goes with more inhibition). Conditions: timepoint 72 hour.
Format: functional, Erythrocyte

Row | SMILES | % Inhibition [%] | Z score
1 | CCCCCN1CC(=O)N[C@@H]1c1cscn1 | -12 | 1.53
2 | COc1cccc(CC(C)NC(=O)NC2CCCn3nc(C)nc32)c1 (stereo not drawn) | -12 | 1.21
3 | C[C@@H](CNc1cncc(C(N)=O)n1)c1nc2ccccc2s1 | -11 | 2.17
4 | CC1CCC(C)N1C(C)c1nc(-c2cscn2)no1 (stereo not drawn) | -6 | 0.62
5 | COc1ccc2oc(CN3CCC[C@H](CCO)C3)cc2c1 | -5 | 0.65
6 | Cn1ccnc1[C@@H]1[C@@H](C(=O)Nc2ccnc(C(C)(C)C)n2)CCC(=O)N1C1CC1 | 4 | -0.65
7 | OCCn1ncnc1-c1scc2c1OCCO2 | -21 | 2.27
8 | Cc1noc(C)c1N(C)CCn1cncn1 | -14 | 1.6
9 | O=C(c1cnccn1)N1CC[C@H](CCOc2ccccc2)C1 | -4 | 0.63
10 | O=C1NCC2(CN(C(=O)c3coc4ccccc34)C2)O1 | 6 | -0.69
11 | CN(C)C[C@H]1CN(C(=O)c2ccc(F)c(Cl)c2)CC12CCCCC2 | 2 | -0.42
12 | COCc1noc(CNC(=O)Nc2cccc(CN3CCCC[C@@H]3C)c2)n1 | -8 | 1.49
13 | Cc1nscc1-c1nc([C@H]2CCS(=O)(=O)C2)no1 | 6 | -0.77
14 | COc1c(C)cnc(CN2CCN(Cc3ccc(C)o3)[C@@H](CCO)C2)c1C | -5 | 0.71
15 | CC(C)(C)OC(=O)N[C@H](C(=O)O)c1ccccc1 | 4 | -0.5
16 | O=S1(=O)C[C@H](NC2CC2)[C@@H](S(=O)(=O)c2ccccc2)C1 | -7 | 0.82
17 | Cc1oc(C(C)C)cc1C(=O)N1CCC2(CC1)CC(=O)N(Cc1ccccc1)C2 | -6 | 0.96
18 | O=C(CCc1ccco1)Nc1nc(-c2cc(F)ccc2F)cs1 | -18 | 1.52
19 | CCNC(=O)N[C@H]1CCN(c2nc(O)cc(C(C)C)n2)C1 | -11 | 1.19
20 | CCc1c(N[C@H]2CCN(C)C2=O)cnn1C(CC)CC | 1 | -0.14
21 | COc1ccc(C(CC(=O)c2ccccc2)C2C(=O)CC3CCC2N3C)cc1 (stereo not drawn) | 2 | -0.24

Row | SMILES | % Inhibition [%] | Z score
22 | CN(C)Cc1csc(-c2nc3c(cnn3-c3ccccc3)[nH]2)c1 | 4 | -0.69
23 | Cc1cnn(C2CCN(Cc3nc4ccccc4c(C)c3Cl)CC2)c1 | -11 | 2.16
24 | Cc1c(F)cccc1NC(=O)N1CCN(C2=CC3=N[C@@H](C)CN3C=N2)CC1 | 57 | -7.99
25 | CCN(Cc1ccccc1)c1ncc(S(=O)(=O)c2cc(Cl)ccc2OC)c(N)n1 | -6 | 0.83
26 | N#Cc1cccnc1N[C@H]1CCc2nnc(-c3ccccc3)n2C1 | -7 | 0.82
27 | Cc1ccc(-c2nc(CC(=O)Nc3nccs3)cs2)o1 | 2 | -0.14
28 | Cc1ccc(CCN(Cc2ccco2)C(=O)C2CCNCC2)cc1 | 10 | -1.36
29 | Cc1nn(C)c2nc(-c3cccs3)cc(C(=O)N3CCN(Cc4ccccc4)CC3)c12 | 32 | -3.62
30 | CC(C)Oc1cccc(N(CC(=O)N2CC(=O)Nc3ccccc32)S(C)(=O)=O)c1 | 1 | -0.1
31 | Cc1ccc2c(n1)OCCN2Cc1noc(C2CC2)n1 | -10 | 0.84
32 | CN1CCN(CC2(O)CCC3(CCN(C(=O)c4c(F)cccc4F)CC3)CC2)CC1 | -4 | 0.67
33 | C#CCCC1(CCC(=O)N2c3ccncc3C[C@@H]2C)N=N1 | -5 | 0.66
34 | CCCCc1nc(N2CCCN(C(=O)Nc3ccc(C)cc3C)CC2)c2c(-c3ccccc3)noc2n1 | -6 | 0.91
35 | O=C1NCC2(CN(C(=O)Cc3ccc(F)c(F)c3)C2)O1 | -1 | 0.2
36 | CCn1nccc1-c1nc(N)nc(C)c1Cl | -10 | 1.06
37 | CCOc1ccc(S(=O)(=O)Nc2cc(C(=O)O)cnc2N2CCC(Cc3ccccc3)CC2)cc1 | 3 | -0.26
38 | O=C(Cc1c(F)cccc1Cl)NC1CCC2OCCOC2C1 (stereo not drawn) | -7 | 1.29
39 | CCCc1cc(=O)[nH]c(C(=Cc2c(C3CC3)cnn2C)CC)n1 | -25 | 4.77
40 | COc1ccc(C2=NN(C(=O)CN(C)C(=O)c3cccc(F)c3)[C@H](c3ccc4c(c3)OCO4)C2)cc1 | -14 | 1.31
41 | Cc1n[nH]c(C)c1CCC(=O)NCCS(=O)(=O)N(C)C | 3 | -0.49
42 | COC1(CNC(=O)N2CC[C@H](c3cnn(C)c3)C2)CCOCC1 | 2 | -0.28

Row | SMILES | % Inhibition [%] | Z score
43 | CC(=O)NCc1ccc(N2CC[C@@]3(CCCN(CCC4CCCCC4)C3)C2)nc1 | -1 | 0.2
44 | Fc1ccc2c(c1)CCN(Cc1cc[nH]n1)C2 | -6 | 0.68
45 | CC(C(=O)NC1CC=CCC1)C(F)(F)F (stereo not drawn) | -4 | 0.75
46 | Cc1c(-c2nc([C@H]3CCOC3)no2)[nH]c2ccccc12 | -7 | 0.7
47 | COc1ccccc1CNC(=O)[C@]1(C)Cn2cnc(C(=O)N3CCCC3)c2C(=O)N1C1CC1 | -25 | 2.53
48 | O=C(C1CCC1c1ccc(F)cc1)N1CCCC(c2nc3ccc(F)cc3o2)C1 (stereo not drawn) | -10 | 1.06
49 | COc1ccc(NC(=O)N/C=C/c2ccc(Cl)cc2)cc1 | 0 | -0.07
50 | OC[C@@H]1[C@@H](Cc2ccnc(C3CC3)n2)[C@H](NCc2ccc(F)cc2)C[C@H]1O | 30 | -3.41
51 | O=C1CN(C(=O)Cn2nnc3ccccc3c2=O)CCN1 | -7 | 1.35
52 | O=C(CNC(=O)C1(N2CCOCC2)CCC1)Nc1ccccc1 | 1 | -0.16
53 | Cn1c(NC(=O)c2cccs2)c(-c2ccc3c(c2)OCO3)c(=O)c2ccccc21 | -2 | 0.32
54 | COCCN(CC(F)F)C(=O)Nc1ccccc1C(F)(F)F | -7 | 0.74
55 | COc1ccccc1C(=O)N1CCC2(CC1)C[C@@H](O)CCO2 | -6 | 0.84
56 | CC(C)C[C@H]1NC(=O)c2cc(F)ccc2OCCn2cc(nn2)CCN(C(=O)c2cccnc2)CCNC1=O | -12 | 1.5
57 | O=C(CCCOc1cccnc1)N1CCC[C@H]1c1ccc(F)c(F)c1 | 0 | -0.06
58 | CCc1c(C(=O)N2CC[C@@](O)(C3CCOCC3)[C@H](C)C2)csc1C | -14 | 1.19
59 | Cc1ncccc1CNC1(C(=O)NCC2CC2)CCCC1 | -3 | 0.26
60 | CCN(C)C[C@H]1CCN(C(=O)c2ccc3[nH]ccc3c2)C1 | 0 | 0.02
61 | CC(C)c1csc([C@H]2CCCN(Cc3ccc(C(=O)O)c(Cl)c3)C2)n1 | 7 | -0.81
62 | C[C@@H](C(=O)Nc1nccnc1C1CC1)c1ccccc1F | 1 | -0.18
63 | CC[C@@](C)(C(=O)NC1CCCC1)N(Cc1ccco1)C(=O)c1cnccn1 | 10 | -1.21

Row | SMILES | % Inhibition [%] | Z score
64 | Cc1sc2ncnc(NCC(C)(C)N3CCN(C)CC3)c2c1C | -11 | 0.97
65 | CN(C[C@H]1CCOC1)S(=O)(=O)c1cc2cc(Cl)ccc2s1 | -4 | 0.36
66 | O=C(Nc1ccc(-c2nc3ccc(NC(=O)C4CCCCC4)cc3s2)cc1)C1CCCCC1 | -15 | 2.38
67 | O=C1N[C@H](CO)C(=O)N[C@H]1Cc1c[nH]c2ccccc12 | -4 | 0.73
68 | Cc1cc2ccccc2n1CC(=O)Nc1cc(N2CCCC2=O)ccc1F | -13 | 1.43
69 | Cc1ccc(NS(=O)(=O)c2ccc(C(=O)Nc3nnn[nH]3)cc2)cc1C | -10 | 1.34
70 | COc1cc(CN(C)Cc2cc(C3CC3)[nH]n2)ccc1OC[C@@H](O)CN(C)C(C)C | 6 | -1.06
71 | c1ccc2c3nc[nH]c(N4CCCC4)c-3nc2c1 | 6 | -0.69
72 | O=C(C[C@H]1CCCN1c1ccnc(C2CC2)n1)c1ccco1 | 37 | -5.38
73 | Cc1csc(C(=O)N2CCCCS2(=O)=O)c1Cl | -5 | 0.99
74 | CCCOCCNC(=O)C1=C(C)NC(=O)N[C@H]1C | -10 | 1.61
75 | C[C@H]1CCCN(C(=O)NCCc2nccn2C(F)F)C1 | 8 | -1.02
76 | CN(C)C(=O)c1nn(CCC(F)(F)F)c2c1CNCC2 | 2 | -0.2
77 | OC(CN1CCC(CCCC2CCN(CC(O)c3ccccc3)CC2)CC1)c1ccccc1 (stereo not drawn) | -2 | 0.31
78 | C[C@H]1CN(C(=O)Nc2ccccc2)C2(CCCCCC2)O1 | 1 | -0.15
79 | CC(C)n1c([C@@H]2c3nc[nH]c3CCN2Cc2ccoc2)nc2ccccc21 | -6 | 0.56
80 | Cc1cnccc1CN1CC[C@H](N2CCOCC2)[C@H](CCCO)C1 | -3 | 0.55
81 | COc1ccccc1CN(Cc1nc(C(=O)NCCN(C)C)co1)C(C)C | 1 | -0.12
82 | c1ccc(COC[C@H]2c3nc[nH]c3CCN2Cc2cccnc2)cc1 | -21 | 1.89
83 | CN1CCCC[C@@H]1CCOc1ccc([C@H]2CC[C@H](N(C)C(=O)c3ccc(Cl)cc3)CC2)cc1 | 6 | -0.68
84 | CC(C)N(CC(=O)Nc1cccc(N2CCCC2=O)c1)Cc1ccccc1 | -12 | 1.86

From ChEMBL document CHEMBL4888484, “Replenishing the malaria drug discovery pipeline: Screening and hit evaluation of the MMV Hit Generation Library 1 (HGL1) against asexual blood stage Plasmodium falciparum ,using a nano luciferase reporter read-out” (2022)
